{
  "source": "PubChem BioAssay AID1508623",
  "about": "(National Center for Advancing Translational Sciences (NCATS), 2021)",
  "note": "Among all 48,000 compounds or so, about 450 (0.94%) were called active. Roughly 19% stayed inconclusive and do not appear here. Calls follow the shape of the dose curve; as a rule, active = well fitted inhibition curve with a large enough effect; inconclusive = small, poorly fitted or top-dose-only effect; inactive = no such curve, though single readings can be large or run the other way. The list shows a part of the results.",
  "data": [
    {"experiment": "Primary qHTS for Identification of Small Molecule Inhibitors of Huntingtin Promoter Activity; also: nearly all actives have a fitted effect of over 50% in size", "conditions": "HEK293 HTT promoter firefly luciferase reporter (activity 0% = vehicle and -100% = no light), 24 h; series mostly up to 57.5 µM; activity change, negative = inhibition: at the top concentration", "in_short": "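HEK293 Fluc reporter, 2,500 cells/well, 24 h pre-culture; cpds up to 57.5 uM final, 24 h 37 degrees C; Dual-Glo, 10 min RT; normalized vehicle = 0%, zero RLU = -100%.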", "values": [
      {"smiles": "Cc1csc2nc(COc3ccc(NC(=O)c4ccccc4F)cc3)cc(=O)n12", "activity change, negative = inhibition": "inactive: 0.12%"},
      {"smiles": "Cc1nn(Cc2ccccc2Cl)c(C)c1CN(C)CC(O)COc1ccc(Cl)cc1", "note": "(centres undefined)", "activity change, negative = inhibition": "inactive: -17.6%"},
      {"smiles": "COc1ccc(NC(=O)Cn2c(=O)c3cccn3c3ccccc32)cc1", "activity change, negative = inhibition": "inactive: -6.56%"},
      {"smiles": "COc1ccc(S(=O)(=O)NCCc2sc(-c3cccnc3)nc2C)cc1", "activity change, negative = inhibition": "inactive: -8.38%"},
      {"smiles": "O=C(NC1CC(=O)N(c2ccc(F)cc2)C1)c1ccc(S(=O)(=O)N2CCOCC2)cc1", "note": "(centres undefined)", "activity change, negative = inhibition": "inactive: -1.82%"},
      {"smiles": "Cc1ccc(C(=O)c2oc3ccccc3c2NC(=O)c2cc(-c3ccccc3)on2)cc1", "activity change, negative = inhibition": "inactive: 6.99%"},
      {"smiles": "Cc1ccc(-n2ncc3c(Nc4ccc5c(c4)OCCO5)ncnc32)cc1Cl", "activity change, negative = inhibition": "inactive: -5.9%"},
      {"smiles": "CCOCCCN1C(=O)CN(C2CCCCCC2)C(=O)C1c1ccc(OCC)c(OC)c1", "note": "(centres undefined)", "activity change, negative = inhibition": "inactive: 18.8%"},
      {"smiles": "CCSc1nc(-c2ccccc2)nc2c1Cc1c(CO)cnc(C)c1O2", "activity change, negative = inhibition": "inactive: -14.3%"},
      {"smiles": "CCOC(=O)c1[nH]c(C)c(CCC(=O)N2CCN(c3ccc(OC)cc3)CC2)c1C", "activity change, negative = inhibition": "inactive: -14.3%"},
      {"smiles": "O=C(O)CCC(=O)N1CCc2cc(S(=O)(=O)NCc3ccc(F)cc3)ccc21", "activity change, negative = inhibition": "inactive: -20%"},
      {"smiles": "COc1ccc(NC(=O)c2cccc3c(=O)c4c([nH]c23)CCCC4)cc1", "activity change, negative = inhibition": "inactive: -16.4%"},
      {"smiles": "Cc1ccc(C(C)C)c(OCC(=O)Nc2ccc3c(c2)nc(CCNC(=O)c2ccco2)n3C)c1", "activity change, negative = inhibition": "inactive: -9.91%"},
      {"smiles": "O=C(COc1ccccc1F)Nc1nnc(SCc2cc(=O)n3ccccc3n2)s1", "activity change, negative = inhibition": "inactive: -2.82%"},
      {"smiles": "CCOC(=O)c1cc2c(=O)n3ccccc3nc2n(CC2CCCO2)c1=NC(=O)c1cccc(C)c1", "note": "(centres undefined)", "activity change, negative = inhibition": "inactive: -29.8%"},
      {"smiles": "Cc1ccccc1Cn1nnc2sc3c(c2c1=O)CCCC3", "activity change, negative = inhibition": "inactive: -7.67%"},
      {"smiles": "CCOC(=O)c1c(NC(=O)Nc2ccc(F)cc2)sc(C(=O)N(C)C)c1C", "activity change, negative = inhibition": "inactive: -19.3%"},
      {"smiles": "COc1ccc(CCNC(=O)c2ccc3c(c2)N(Cc2ccccc2Cl)C(=O)c2ccccc2S3)cc1OC", "activity change, negative = inhibition": "inactive: -19.5%"},
      {"smiles": "Cn1cc(CCCC(=O)NCc2cccc(Br)c2)c2ccccc21", "activity change, negative = inhibition": "inactive: -3.89%"},
      {"smiles": "CCc1nc2ccc(C(=O)NCc3ccccc3C)cc2nc1CC", "activity change, negative = inhibition": "inactive: -4.2%"},
      {"smiles": "COc1ccc(-n2cc(-c3ccccc3)c3c(N4CCCC(C)C4)ncnc32)cc1", "note": "(centres undefined)", "activity change, negative = inhibition": "inactive: -12.9%"},
      {"smiles": "CN=C(N)NC(=O)Nc1c(C)cccc1C", "activity change, negative = inhibition": "inactive: 5.35%"},
      {"smiles": "O=c1c(NCc2cccs2)nccn1-c1ccccc1", "activity change, negative = inhibition": "inactive: 21.9%"},
      {"smiles": "O=C(CS(=O)(=O)c1cccc2nsnc12)NCc1ccccc1Cl", "activity change, negative = inhibition": "inactive: -1.49%"},
      {"smiles": "Cc1ccc(CN2c3ccccc3-c3nc(SCC(=O)NCc4ccccc4)ncc3S2(=O)=O)cc1", "activity change, negative = inhibition": "inactive: -24.3%"},
      {"smiles": "CCC(=O)C1=C(c2ccccc2)N(C(=O)CC)n2c(nnc2-c2ccccc2)S1", "activity change, negative = inhibition": "inactive: -12.5%"},
      {"smiles": "Cc1ccc(S(=O)(=O)NCCc2nnc3ccc(SCc4ccccc4F)nn23)cc1", "activity change, negative = inhibition": "inactive: -13.7%"},
      {"smiles": "CCCCCCc1cc2cc(-c3nnc(-c4cccc(Cl)c4)o3)c(=O)oc2cc1O", "activity change, negative = inhibition": "inactive: -6.08%"},
      {"smiles": "Cc1ccc(NC(=O)c2oc3ccc(S(=O)(=O)N4CCCCC4)cc3c2C)c(C)c1", "activity change, negative = inhibition": "inactive: -16.2%"},
      {"smiles": "Cc1cccc(N2CCN(C(=O)C(C)n3nc(C)n4c(cc5occc54)c3=O)CC2)c1C", "note": "(centres undefined)", "activity change, negative = inhibition": "inactive: -19.9%"},
      {"smiles": "Cc1cc(C)c(NC(=O)c2c(C)oc3c2C2=NCCN2C=N3)c(C)c1", "activity change, negative = inhibition": "inactive: -6.15%"},
      {"smiles": "CCc1ccc(CNC(=O)Cn2nc(-c3ccc(Cl)cc3)ccc2=O)cc1", "activity change, negative = inhibition": "inactive: -29.4%"},
      {"smiles": "CCOC(=O)C1=C(O)C(=O)N(Cc2ccccc2)C1", "activity change, negative = inhibition": "inactive: -8.23%"},
      {"smiles": "CN(C)c1ccc(CNC(=O)C2CCN(S(=O)(=O)c3ccc4c(c3)oc(=O)n4C)CC2)cc1", "activity change, negative = inhibition": "inactive: -8.39%"},
      {"smiles": "COc1cccc(NC(=O)Cn2c(=O)n(Cc3ccc(C(=O)NCc4ccc5c(c4)OCO5)cc3)c(=O)c3ccccc32)c1", "activity change, negative = inhibition": "inactive: -1.12%"},
      {"smiles": "CCC(Oc1ccc(F)cc1)C(=O)Nc1nc2c(s1)CCCC2", "note": "(centres undefined)", "activity change, negative = inhibition": "inactive: -20.9%"},
      {"smiles": "Cc1cnc(C(=O)O)c[n+]1[O-]", "activity change, negative = inhibition": "inactive: 3.46%"},
      {"smiles": "COc1ccc(C(=O)N2c3nc(-c4ccco4)nn3C3(CCCCC3)[C@@H]3CCCC[C@@H]32)cc1OC", "activity change, negative = inhibition": "inactive: -22.7%"},
      {"smiles": "CC(=O)Nc1cccc(O)c1", "activity change, negative = inhibition": "inactive: 1.44%"},
      {"smiles": "O=C(NC1CCCCC1)c1ccc(Cn2c(SCc3ccccc3)nc3cccnc32)cc1", "activity change, negative = inhibition": "inactive: -1.86%"},
      {"smiles": "O=C(Nc1ccc(F)cc1)c1oc2ccccc2c1NC(=O)C1CCCCC1", "activity change, negative = inhibition": "inactive: -22%"},
      {"smiles": "Cc1cccc(C(=O)N2CCCCC2CCN2CCCCC2)c1", "note": "(centres undefined)", "activity change, negative = inhibition": "inactive: -11.3%"},
      {"smiles": "O=C(O)C1(C(=O)O)CCC1.[NH2-].[NH2-].[Pt+2]", "activity change, negative = inhibition": "inactive: -0.0181%"},
      {"smiles": "COCCCn1c(=O)c2sccc2n2c(CCCC(=O)Nc3ccc(F)c(F)c3)nnc12", "activity change, negative = inhibition": "inactive: -19%"},
      {"smiles": "COc1ccc(CNC(=O)CCC2N=C3c4ccccc4N=C(SCc4ccc(F)cc4)N3C2=O)cc1", "note": "(centres undefined)", "activity change, negative = inhibition": "inactive: -21%"},
      {"smiles": "O=C(C1CCCCC1)N(Cc1cccnc1)c1nc2c(F)cc(F)cc2s1", "activity change, negative = inhibition": "inactive: -29.2%"},
      {"smiles": "CCN1CCOC(=O)C1CC(=O)Nc1ccc(C)c(Cl)c1", "note": "(centres undefined)", "activity change, negative = inhibition": "inactive: -3.85%"},
      {"smiles": "Nc1c(C(=O)Nc2cccc(F)c2)sc2nc(-c3cccs3)ccc12", "activity change, negative = inhibition": "inactive: 14.4%"},
      {"smiles": "Cc1cc(C)nc(NS(=O)(=O)c2ccc(NC(=O)c3cc(=O)c4ccc(C)c(C)c4o3)cc2)n1", "activity change, negative = inhibition": "inactive: 15.9%"},
      {"smiles": "CN1CCN(C2(CNC(=O)c3ccc([N+](=O)[O-])cc3)CCCCC2)CC1", "activity change, negative = inhibition": "inactive: -11.7%"},
      {"smiles": "Cc1ccccc1-c1nc2scc(CCNC(=O)C(=O)Nc3ccc(F)cc3F)n2n1", "activity change, negative = inhibition": "inactive: 1.94%"},
      {"smiles": "Nc1c(C(=O)NCCc2ccccc2)nnn1CC(=O)Nc1ccc(Cl)cc1", "activity change, negative = inhibition": "inactive: -10.8%"},
      {"smiles": "O=C(CSc1nc2c([nH]c3ccccc32)c(=O)n1-c1ccccc1)c1ccc(Cl)cc1", "activity change, negative = inhibition": "inactive: -3.63%"},
      {"smiles": "CCCn1c(CCC(=O)Nc2cccc(C)c2C)nc2cccnc21", "activity change, negative = inhibition": "inactive: -4.56%"},
      {"smiles": "Cc1ccc(Nc2c(-c3ccc(N4CCOCC4)cc3)nc3c(C)cccn23)cc1", "activity change, negative = inhibition": "inactive: -5.38%"},
      {"smiles": "COCCn1c(SCC(=O)Nc2cccc(C)c2C)nc2c(oc3ccccc32)c1=O", "activity change, negative = inhibition": "inactive: -9.86%"},
      {"smiles": "COc1ccc(CCNC(=O)c2cc3c(-c4ccc(OC)c(OC)c4)nn(C)c3s2)cc1OC", "activity change, negative = inhibition": "inactive: -18.8%"},
      {"smiles": "Cc1oc2ncn(C)c(=O)c2c1C(=O)N(Cc1ccccc1)C(C)C", "activity change, negative = inhibition": "inactive: -3.78%"},
      {"smiles": "CCOC(=O)c1c(C)[nH]c(CCC(=O)NCc2cccc(OC)c2)c1C", "activity change, negative = inhibition": "inactive: -11.9%"},
      {"smiles": "Cc1ccc(Cl)cc1N1CCN(C(=O)CCn2c(=O)c3cccn3c3cccnc32)CC1", "activity change, negative = inhibition": "inactive: -0.736%"},
      {"smiles": "CCc1ccccc1NC(=O)CSc1nc2ncccc2o1", "activity change, negative = inhibition": "inactive: -17.1%"},
      {"smiles": "COc1ccc(C(CNC(=O)Cc2ccc(Cl)cc2)N2CCOCC2)cc1", "note": "(centres undefined)", "activity change, negative = inhibition": "inactive: -3.07%"},
      {"smiles": "O=C(CC(c1cccs1)N1Cc2ccccc2C1=O)Nc1ccc(F)cc1F", "note": "(centres undefined)", "activity change, negative = inhibition": "inactive: -16%"},
      {"smiles": "Cc1cccc(CC(=O)NC2CC(=O)N(c3ccccc3)C2)c1", "note": "(centres undefined)", "activity change, negative = inhibition": "inactive: -14.4%"}
    ]}
  ]
}
